According to the antibiotic and cytotoxicity screens of Wong et al. (2023):
This is one part of the list.

Test system: HepG2
Assay: cytotoxicity call (relative viability < 0.9)
Conditions: 10 µM

SMILES | cytotoxicity call
CCCN(C)C[C@H]1Oc2cc(C#Cc3cccc(OC)c3)ccc2S(=O)(=O)N([C@H](C)CO)C[C@H]1C | inactive
COc1cccc(O)c1O | active
CC(C)NC(=O)N(C)C[C@H]1Oc2ccc(NS(=O)(=O)c3ccc(Cl)cc3)cc2CC(=O)N([C@@H](C)CO)C[C@H]1C | inactive
O=S(=O)(C1CCCCC1)C1CNC1 | inactive
CO[C@H]1O[C@H](CO)[C@@H](OC(=O)Nc2ccccc2)[C@@H]2OC(=O)[C@H](Cc3cccc(Br)c3)C/C=C/C[C@@H](Cc3cccc(Br)c3)C(=O)O[C@@H]12 | inactive
C[C@H](CO)N1C[C@H](C)[C@H](CN(C)Cc2ccc(C(F)(F)F)cc2)OCCCC[C@H](C)Oc2ccc(NC(=O)c3ccccc3)cc2C1=O | inactive
Cn1cnc2c(C(F)(F)F)nc(N)nc21 | inactive
O=C(C[C@@H]1CC=CCC[C@@H](Cc2ccc(F)cc2)C(=O)OCCNC1=O)N[C@@H](CO)Cc1ccccc1 | inactive
C[C@@H]1CN([C@H](C)CO)C(=O)c2cc(NS(=O)(=O)c3ccccc3)ccc2O[C@@H]1CN(C)S(C)(=O)=O | inactive
OC[C@@H](O)[C@@H](O)CO | inactive
C[C@H]1CCCCO[C@H](CN(C)S(=O)(=O)c2cccs2)[C@@H](C)CN([C@@H](C)CO)C(=O)c2cc(NC(=O)c3ccccc3)ccc2O1 | inactive
C[C@H](CO)N1C[C@H](C)[C@@H](CN(C)C(=O)NC2CCCCC2)Oc2ccc(NC(=O)CCN3CCOCC3)cc2C1=O | inactive
CCS(=O)(=O)N1CCOC[C@]2(CC[C@@H](Cn3cncn3)O2)C1 | inactive
Cc1ccc(S(=O)(=O)Nc2cccc3c2O[C@H](CN(C)S(C)(=O)=O)[C@H](C)CN([C@H](C)CO)C3=O)cc1 | inactive
C[C@H](CO)N1C[C@H](C)[C@H](CN(C)Cc2ccncc2)Oc2ncc(C#Cc3cccc(F)c3)cc2C1=O | inactive
CC(C)CC#Cc1ccc2c(c1)O[C@H](CN(C)S(=O)(=O)c1ccc(F)cc1)[C@H](C)CN([C@@H](C)CO)S2(=O)=O | inactive

Test system: S. aureus RN4220
Assay: growth inhibition call (relative growth <= 0.2)
Conditions: 50 µM

SMILES | growth inhibition call
Cc1cc(C(=O)Nc2cccc3c2O[C@@H](CN(C)C(=O)Nc2c(C)noc2C)[C@@H](C)CN([C@H](C)CO)C3=O)n(C)n1 | inactive
CN1CCN(C(=O)C[C@@H]2C[C@H]3c4cc(NC(=O)c5ccc6c(c5)OCO6)ccc4O[C@H]3[C@@H](CO)O2)CC1 | inactive
C[C@@H]1CN([C@H](C)CO)C(=O)c2cc(NC(=O)c3ccccc3)ccc2O[C@@H](C)CCCCO[C@H]1CN(C)Cc1ccc(C(=O)O)cc1 | inactive
C[C@H](CO)N1C[C@H](C)[C@H](CN(C)C(=O)Nc2ccc(C(F)(F)F)cc2)Oc2ccc(NC(=O)CCCCCC(=O)Nc3ccccc3N)cc2C1=O | inactive
CNC(=O)c1c(N)cnn1C | inactive
C[C@@H]1CN([C@H](C)CO)C(=O)c2cc(NS(=O)(=O)c3ccc(F)cc3)ccc2O[C@@H](C)CCCCO[C@@H]1CN(C)S(=O)(=O)c1cn(C)cn1 | inactive
C[C@@H]1CCCCO[C@H](CN(C)Cc2ccc3c(c2)OCO3)[C@@H](C)CN([C@@H](C)CO)C(=O)c2cc(NS(=O)(=O)c3cccs3)ccc2O1 | inactive
CCOC[C@@H](O)CS(=O)(=O)c1ccccn1 | inactive
CC(C)NC(=O)Nc1ccc2c(c1)C(=O)N([C@H](C)CO)C[C@@H](C)[C@H](CN(C)S(=O)(=O)c1cn(C)cn1)O2 | inactive
Cn1c(=O)c2[nH]c(NCCN3CCOCC3)nc2n(C)c1=O | inactive
C[C@@H]1CCCCO[C@@H](CN(C)C(=O)CCC(F)(F)F)[C@H](C)CN([C@H](C)CO)C(=O)c2cc(NC(=O)C3CCCCC3)ccc2O1 | inactive
COc1ccc([Si](C)(C)[C@H]2[C@H](CCO)O[C@@]3(C(=O)N(Cc4cccc(N5C(=O)c6cccc7cccc5c67)c4)c4ccccc43)[C@@H]2C)cc1 | inactive
Cc1ccc(S(=O)(=O)Nc2ccc3c(c2)CC(=O)N([C@H](C)CO)C[C@H](C)[C@H](CN(C)CC2CC2)O3)cc1 | inactive
C[C@@H]1CN([C@H](C)CO)C(=O)Cc2cc(NS(=O)(=O)c3cccs3)ccc2O[C@H]1CN(C)Cc1ccc(Cl)c(Cl)c1 | inactive
Cn1cnc(S(=O)(=O)N[C@H]2CC[C@@H](CC(=O)NCC3CC3)O[C@H]2CO)c1 | inactive
Cc1ccc(S(=O)(=O)Nc2ccc3c(c2)CC(=O)N([C@@H](C)CO)C[C@@H](C)[C@@H](CN(C)CC2CC2)O3)cc1 | inactive
C[C@@H]1CN([C@@H](C)CO)C(=O)Cc2cc(NC(=O)Nc3ccc(C(F)(F)F)cc3)ccc2O[C@H]1CN(C)C(=O)Nc1ccccc1 | inactive
Cc1noc(C)c1S(=O)(=O)Nc1ccc2c(c1)C(=O)N([C@@H](C)CO)C[C@H](C)[C@H](CN(C)C(=O)Nc1ccc(C(F)(F)F)cc1)OCCCC[C@H](C)O2 | inactive
C[C@H](CO)N1C[C@H](C)[C@H](CN(C)S(=O)(=O)c2cn(C)cn2)Oc2ncc(Br)cc2C1=O | inactive
NCC[C@H]1CC[C@@H](NC(=O)C2CC2)[C@@H](CO)O1 | inactive

SMILES | growth inhibition call
C[C@H](CO)N1C[C@H](C)[C@@H](CN(C)Cc2ccc(C(F)(F)F)cc2)Oc2ccc(NC(=O)Nc3ccccc3)cc2C1=O | inactive
CCS(=O)(=O)Nc1ccc2c(c1)C(=O)N(C)C[C@H](OC)[C@@H](C)CN(Cc1ccccn1)[C@H](C)CO2 | inactive
C[C@@H]1CN([C@@H](C)CO)C(=O)c2cccc(NC(=O)c3ccncc3)c2O[C@@H]1CN(C)S(=O)(=O)c1cn(C)cn1 | inactive
CCCN(C)C[C@H]1Oc2cc(C#Cc3cccc(OC)c3)ccc2S(=O)(=O)N([C@H](C)CO)C[C@H]1C | inactive
COc1cccc(O)c1O | inactive
CC(C)NC(=O)N(C)C[C@H]1Oc2ccc(NS(=O)(=O)c3ccc(Cl)cc3)cc2CC(=O)N([C@@H](C)CO)C[C@H]1C | inactive
O=S(=O)(C1CCCCC1)C1CNC1 | inactive
CO[C@H]1O[C@H](CO)[C@@H](OC(=O)Nc2ccccc2)[C@@H]2OC(=O)[C@H](Cc3cccc(Br)c3)C/C=C/C[C@@H](Cc3cccc(Br)c3)C(=O)O[C@@H]12 | inactive
C[C@H](CO)N1C[C@H](C)[C@H](CN(C)Cc2ccc(C(F)(F)F)cc2)OCCCC[C@H](C)Oc2ccc(NC(=O)c3ccccc3)cc2C1=O | inactive
Cn1cnc2c(C(F)(F)F)nc(N)nc21 | inactive
O=C(C[C@@H]1CC=CCC[C@@H](Cc2ccc(F)cc2)C(=O)OCCNC1=O)N[C@@H](CO)Cc1ccccc1 | inactive
C[C@@H]1CN([C@H](C)CO)C(=O)c2cc(NS(=O)(=O)c3ccccc3)ccc2O[C@@H]1CN(C)S(C)(=O)=O | inactive
OC[C@@H](O)[C@@H](O)CO | inactive
C[C@H]1CCCCO[C@H](CN(C)S(=O)(=O)c2cccs2)[C@@H](C)CN([C@@H](C)CO)C(=O)c2cc(NC(=O)c3ccccc3)ccc2O1 | inactive
C[C@H](CO)N1C[C@H](C)[C@@H](CN(C)C(=O)NC2CCCCC2)Oc2ccc(NC(=O)CCN3CCOCC3)cc2C1=O | inactive
CCS(=O)(=O)N1CCOC[C@]2(CC[C@@H](Cn3cncn3)O2)C1 | inactive
Cc1ccc(S(=O)(=O)Nc2cccc3c2O[C@H](CN(C)S(C)(=O)=O)[C@H](C)CN([C@H](C)CO)C3=O)cc1 | inactive
C[C@H](CO)N1C[C@H](C)[C@H](CN(C)Cc2ccncc2)Oc2ncc(C#Cc3cccc(F)c3)cc2C1=O | inactive
CC(C)CC#Cc1ccc2c(c1)O[C@H](CN(C)S(=O)(=O)c1ccc(F)cc1)[C@H](C)CN([C@@H](C)CO)S2(=O)=O | inactive
